# From patent US7592316B2, “Peptides as NS3-serine protease inhibitors of hepatitis C virus” (Schering Corporation, priority 2000, dated 2009)
# *1 amine or outer side, *2 acyl side, *3 side chain or, on linkers, in order; H or OH if unused. Where a SMILES comes first, the peptide text is derived from it. [ ]: non-standard residue; d: D form. The star is where a group is joined. ξ: configuration not given here. ξLeu(ψCOCO) = CC(C)CC(N[*:1])C(=O)C(=O)[*:2]; Pro(4,4-Me2) = CC1(C)CN[C@H](C(=O)O)C1; Phg = N[C@H](C(=O)O)c1ccccc1; Tle = CC(C)(C)[C@H](N)C(=O)O; Boc = CC(C)(C)OC(=O)*
# Target: HCV NS3/NS4A protease (strain 1a) (Hepatitis C virus genotype 1a, UniProt P27958)
# Assay: biochemical
# Conditions: Table 5; HCV NS3/NS4A protease, spectrophotometric assay, 30° C., pH 6.5; read-out: Ki* Range
row,Ki,SMILES
1,> 1000 nM,CC(C)(C)OC(=O)N[C@H](C(=O)N1C[C@H]2[C@@H]([C@H]1C(=O)NC(CC1CC1)C(=O)C(=O)NCC(F)(F)F)C2(C)C)C1CCCCC1 (stereo partly drawn)
2,> 1000 nM,CCCC(NC(=O)[C@@H]1[C@@H]2[C@H](CN1C(=O)[C@@H](NC(=O)OC(C)(C)C)C(C)(C)C)C2(C)C)C(=O)C(=O)NCc1cccnc1 (stereo partly drawn)
3,1 to 100 nM,CCCC(NC(=O)C1[C@H]2[C@@H](CN1C(=O)[C@@H](NCCC(C)C)C1CCCCC1)C2(C)C)C(=O)C(=O)NCC(=O)N[C@H](C(=O)N(C)C)c1ccccc1 (stereo partly drawn)
4,> 1000 nM,C=CCNC(=O)C(=O)C(CCC)NC(=O)[C@@H]1[C@@H]2[C@H](CN1C(=O)[C@@H](NS(=O)(=O)C(C)C)C(C)(C)C)C2(C)C (stereo partly drawn)
5,> 1000 nM,C=CCNC(=O)C(=O)C(CCC)NC(=O)[C@@H]1[C@H]2[C@@H](CN1C(=O)[C@@H](NC(=O)OCC=C)C1CCCC1)C2(C)C (stereo partly drawn)
6,101 to 1000 nM,C=CCCC(NC(=O)[C@@H]1C2C(CN1C(=O)[C@@H](NC(=O)OC(C)(C)C)C1CCCCC1)C2(C)C)C(=O)C(=O)NCC=C (stereo partly drawn)
7,1 to 100 nM,CC(C)(C)COC(=O)N[C@H](C(=O)N1C[C@@H]2[C@H]([C@H]1C(=O)NC(CC1CC1)C(=O)C(N)=O)C2(C)C)C1Cc2ccccc2C1 (stereo partly drawn)
8,> 1000 nM,C=CCNC(=O)C(=O)C1(NC(=O)[C@@H]2[C@@H]3[C@H](CN2C(=O)[C@@H](NC(=O)OC(C)(C)C)C(C)(C)C)C3(C)C)CC1
9,> 1000 nM,CC(C)(C)CC(NC(=O)[C@@H]1[C@@H]2[C@H](CN1C(=O)[C@@H](NC(=O)OC(C)(C)C)C(C)(C)C)C2(C)C)C(=O)C(N)=O (stereo partly drawn)
10,101 to 1000 nM,C=CCC(NC(=O)[C@@H]1[C@@H]2[C@H](CN1C(=O)[C@@H](NC(=O)OC(C)(C)C)C1CCCCC1)C2(C)C)C(=O)C(N)=O (stereo partly drawn)
11,1 to 100 nM,CC1(C)C2CN(C(=O)[C@@H](NC(=O)NC34CC5CC(CC(C5)C3)C4)C3CCCCC3)[C@H](C(=O)NC(CC3CCC3)C(=O)C(N)=O)C21 (stereo partly drawn)
12,> 1000 nM,CC1(C)[C@@H]2[C@@H](C(=O)NC(CC3CC3)C(=O)C(=O)O)N(C(=O)CC3CCCCC3)C[C@@H]21 (stereo partly drawn)
13,> 1000 nM,C=CCNC(=O)C(=O)C(CCC)NC(=O)C1(C)CC(C)(C)CN1C(=O)[C@H](NC(=O)OC(C)(C)C)C(C)(C)C (stereo partly drawn)
14,> 1000 nM,C=CCCC(NC(=O)[C@@H]1[C@H]2[C@@H](CN1C(=O)[C@@H](NC(=O)OC(C)(C)C)C(C)CC)C2(C)C)C(=O)C(=O)NCC=C (stereo partly drawn)
15,> 1000 nM,CCCC(NC(=O)C1C2CC(C3CC32)N1C(=O)C(NC(=O)OC(C)(C)C)C1CCCCC1)C(=O)C(N)=O (stereo not drawn)

row,SMILES,Ki
1,"CC(C)CC(NC(=O)[C@@H]1CC(C)(C)CN1C(=O)[C@@H](NC(=O)OC(C)(C)C)C(C)(C)C)C(=O)C(=O)NCC(=O)N[C@H](C(=O)N(C)C)c1ccccc1 (stereo partly drawn) [drawing 1552] (Boc-[Tle][Pro(4,4-Me2)][ξLeu(ψCOCO)]G[Phg]-NMe2)",1 to 100 nM

# Same assay, conditions: Table 6; HCV NS3/NS4A protease, 30° C., pH 6.5; read-out: Ki*
row,Ki,SMILES
1,101 to 1000 nM,CC(C)(C)[C@@H](CO)NC(=O)N[C@H](C(=O)N1C[C@H]2[C@@H]([C@H]1C(=O)NC(CC1CCC1)C(=O)C(N)=O)C2(Cl)Cl)C1CCCCC1 (stereo partly drawn)
2,1 to 100 nM,CN(C)C(=O)[C@@H](NC(=O)CNC(=O)C(=O)C(CC1CC1)NC(=O)[C@@H]1[C@@H]2[C@H](CN1C(=O)[C@@H](NC(=O)OC(C)(C)C)C1CCC(C(C)(C)C)CC1)C2(C)C)c1ccccc1 (stereo partly drawn) [drawing 2333]
3,1 to 100 nM,CC(NC(=O)N[C@H](C(=O)N1C[C@H]2[C@@H]([C@H]1C(=O)NC(CC1CCC1)C(=O)C(N)=O)C2(C)C)C(C)(C)C)C(F)(F)F (stereo partly drawn)
4,1 to 100 nM,CC(C)(C)NC(=O)N[C@H](C(=O)N1C[C@H]2[C@@H]([C@H]1C(=O)NC(CC1CC1)C(=O)C(=O)NCCS(=O)(=O)Cc1ccccc1)C2(C)C)C(C)(C)C (stereo partly drawn)
5,101 to 1000 nM,CCCC(NC(=O)[C@@H]1[C@@H]2[C@H](CN1C(=O)[C@@H](NC(=O)OC(C)(C)C)C(C)(C)C)C2(C)C)C(=O)C(=O)NCC(=O)NC(C)(C)c1ccccc1 (stereo partly drawn)
6,101 to 1000 nM,CCCC(NC(=O)[C@@H]1[C@@H]2[C@H](CN1C(=O)[C@@H](NC(=O)NC(C)(C)C)C1CCCCC1)C2(C)C)C(=O)C(=O)NCC(=O)CC(C)C (stereo partly drawn)
7,1 to 100 nM,CCCC(NC(=O)[C@@H]1[C@@H]2[C@H](CN1C(=O)[C@@H](NC(=O)OC(C)(C)C)C1CCCCC1)C2(C)C)C(=O)C(=O)NCC(O)C(=O)OC(C)(C)C (stereo partly drawn)
8,101 to 1000 nM,CC(C)(C)NC(=O)N[C@H](C(=O)N1C[C@H](Cl)C[C@H]1C(=O)NC(CC1CCC1)C(=O)C(N)=O)C(C)(C)C (stereo partly drawn)
